Test results from a collection of fitness landscapes (doi:10.1016/j.celrep.2020.107928).
The full ranking holds about 81,000 sequences; the median of “one-hybrid fitness for binding NBS DNA” is about -0.1, and the highest 2% start at about 0.36. The list shows a part of the results.

B1: Caulobacter ParB omega fusion; a variant is named by its letters at X, in order, B8GW30 (parent)
chain: MESVVVGEPGMSEGRRGLGRGLSALLGEVDAAPAQAPGEQLGGSREAPIEILQRNPDQPRRTFREEDLEDLSNSIREKGVLQPILVRPSPDTAGEYQIVAGERAWRAAQRAGLKTVPIMVRELDDLAVLEIGIIENVQRADLNVLEEALSYKVLMEKFERTQENIAQTIGKSXSHVANXMRLLXLPDEVQSYLVSGELTAXHARAIAAAADPVALAKQIIEGGLSVRETEALARKAPNLSAGKSKGGRPPRVKDTDTQALESDLSSVLGLDVSIDHRGSTGTLTITYATLEQLDDLCNRLTRGI

Variants of: B1
Assay: one-hybrid fitness for binding NBS DNA (the Noc-binding site; scaled: cognate 1, non-cognate 0); higher = stronger binding
Conditions: with NBS DNA site
Procedure, shortened: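 Caulobacter ParB libraries with four specificity codons randomised were screened by bacterial one-hybrid selection in the E. coli USO strain, using a HIS3 reporter whose site lies 19 bp from the promoter. Selection ran for 48 hours at 37°C on M9 lacking histidine, with 0.1 mM IPTG and 5 mM 3-AT. Plasmids were Illumina-sequenced before and after selection, three replicate libraries were pooled, and variants with under 10 reads were dropped. Fitness is the log change in each variant's read ratio to wild type, rescaled against the cognate and non-cognate sites.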

| Variant | one-hybrid fitness for binding NBS DNA |
| --- | --- |
| INLT | ≤ 0.2 |
| APNM | ≤ 0.2 |
| ALNS | ≤ 0.2 |
| NASL | ≤ 0.2 |
| IESC | ≤ 0.2 |
| QRNC | 0.44 |
| TKKC | ≤ 0.2 |
| NVDM | ≤ 0.2 |
| VCSS | ≤ 0.2 |
| WRHV | ≤ 0.2 |
| TQVD | ≤ 0.2 |
| YLQG | ≤ 0.2 |
| SAVD | ≤ 0.2 |
| LCFT | ≤ 0.2 |
| TQWR | ≤ 0.2 |
| WRKR | 0.257 |
| TNYW | ≤ 0.2 |
| VQSV | ≤ 0.2 |
| ACLI | ≤ 0.2 |
| SLIT | ≤ 0.2 |
| PVHK | ≤ 0.2 |
| HIRT | ≤ 0.2 |
| ASAT | ≤ 0.2 |
| PYHC | ≤ 0.2 |
| LHWC | ≤ 0.2 |
| YGGT | ≤ 0.2 |

| Variant | one-hybrid fitness for binding NBS DNA |
| --- | --- |
| TNLC | ≤ 0.2 |
| RYPR | ≤ 0.2 |
| SRYE | ≤ 0.2 |
| MARG | ≤ 0.2 |
| VVAY | ≤ 0.2 |
| QNED | ≤ 0.2 |
| AVKW | ≤ 0.2 |
| INMG | ≤ 0.2 |
| DVWE | ≤ 0.2 |
| ATGP | ≤ 0.2 |
| YWSG | ≤ 0.2 |
| CDHV | ≤ 0.2 |
| HDPQ | ≤ 0.2 |
| FYAT | ≤ 0.2 |
| RAQT | 0.395 |
| HDCY | ≤ 0.2 |
| TRNW | ≤ 0.2 |
| CPWT | ≤ 0.2 |
| GKLH | 0.366 |
| RAVW | ≤ 0.2 |
| GDRS | ≤ 0.2 |
| TWLT | ≤ 0.2 |
| TKVR | ≤ 0.2 |
| YRDG | ≤ 0.2 |
| PIPY | ≤ 0.2 |
| ALKP | ≤ 0.2 |

| Variant | one-hybrid fitness for binding NBS DNA |
| --- | --- |
| PKSC | ≤ 0.2 |
| PIAD | ≤ 0.2 |
| AYHC | ≤ 0.2 |
| PSFS | ≤ 0.2 |
| QGFS | ≤ 0.2 |
| QPVN | ≤ 0.2 |
| KEGR | ≤ 0.2 |
| SWSY | ≤ 0.2 |
| NWWR | ≤ 0.2 |
| AYSK | ≤ 0.2 |
| LARS | ≤ 0.2 |
| PRCY | ≤ 0.2 |
| AFEI | ≤ 0.2 |
| YPGQ | ≤ 0.2 |
| IRKT | 0.471 |
| YQHT | ≤ 0.2 |
| KNNN | ≤ 0.2 |
| WCVG | ≤ 0.2 |
| YAHV | ≤ 0.2 |
| KPWT | ≤ 0.2 |
| WHFS | ≤ 0.2 |
| IYRA | ≤ 0.2 |
| ILIR | ≤ 0.2 |
| CPTL | ≤ 0.2 |
| ACIR | ≤ 0.2 |
| RWVS | ≤ 0.2 |

| Variant | one-hybrid fitness for binding NBS DNA |
| --- | --- |
| ITGA | ≤ 0.2 |
| TILR | ≤ 0.2 |
| PDGM | ≤ 0.2 |
| VRVY | ≤ 0.2 |
| PSRE | ≤ 0.2 |
| MSWR | ≤ 0.2 |
| SCHL | ≤ 0.2 |
| RYAI | ≤ 0.2 |
| YYDS | ≤ 0.2 |
| QGHR | 0.239 |
| TTYA | ≤ 0.2 |
| CIDS | ≤ 0.2 |
| QNTR | 0.223 |
| APVW | ≤ 0.2 |
| MDNS | ≤ 0.2 |
| EQKR | ≤ 0.2 |
| YRPP | ≤ 0.2 |
| DGTT | ≤ 0.2 |
| RKQT | 0.606 |
| KTYR | ≤ 0.2 |
| VMRR | 0.261 |
| YSST | ≤ 0.2 |
| YHGF | ≤ 0.2 |
| RWYD | ≤ 0.2 |
| RIHA | ≤ 0.2 |
| QKAS | 0.498 |

| Variant | one-hybrid fitness for binding NBS DNA |
| --- | --- |
| KVSI | ≤ 0.2 |
| QAWK | ≤ 0.2 |
| HSPM | ≤ 0.2 |
| WMFS | ≤ 0.2 |
| HIFG | ≤ 0.2 |
| TDIG | ≤ 0.2 |
| NKPY | ≤ 0.2 |
| PCVE | ≤ 0.2 |
| PLSI | ≤ 0.2 |
| QSDT | 0.32 |
| SQPY | ≤ 0.2 |
| DTRD | ≤ 0.2 |
| RSKY | 0.29 |
| ILCG | ≤ 0.2 |
| SMDT | ≤ 0.2 |
| RKVV | ≤ 0.2 |
| GTGV | ≤ 0.2 |
| FAST | ≤ 0.2 |
| CLVG | ≤ 0.2 |
| ILKL | ≤ 0.2 |
| LHDV | ≤ 0.2 |
| FHCS | ≤ 0.2 |
| SSSF | ≤ 0.2 |
| EGRH | ≤ 0.2 |
| ITES | ≤ 0.2 |
| VRGL | ≤ 0.2 |

| Variant | one-hybrid fitness for binding NBS DNA |
| --- | --- |
| PQEL | ≤ 0.2 |
| QMQL | ≤ 0.2 |
| PYTV | ≤ 0.2 |
| QWPE | ≤ 0.2 |
| PNQM | ≤ 0.2 |
| LSGW | ≤ 0.2 |
| RYVV | ≤ 0.2 |
| TARR | 0.209 |
| PTIV | ≤ 0.2 |
| YLAK | ≤ 0.2 |
| CVCR | ≤ 0.2 |
| NYHK | ≤ 0.2 |
| LAGV | ≤ 0.2 |
| GLTC | ≤ 0.2 |
| IGTG | ≤ 0.2 |
| TSFA | ≤ 0.2 |
| KMTC | ≤ 0.2 |
| HSGV | ≤ 0.2 |
| SGDR | ≤ 0.2 |
| DNCG | ≤ 0.2 |
| RVCD | ≤ 0.2 |
| VSRA | ≤ 0.2 |
| IMRL | ≤ 0.2 |
